Measured values published in PubChem BioAssay AID485364 (National Center for Advancing Translational Sciences (NCATS), 2010).
Out of some 360,000 compounds screened, about 11,000 (3.1%) were called active. The shares of active, inactive and inconclusive entries below differ from those in the screen. Calls come from the whole dose curve; as a rule, active = well fitted inhibition curve with a large enough effect; inconclusive = small, poorly fitted or top-dose-only effect; inactive = no such curve, though single readings can be large or run the other way. Potencies of inconclusive entries are left out as doubtful fits.

Each compound was assayed against Schistosoma mansoni thioredoxin glutathione reductase (TGR) (UniProt Q962Y6) (assay: qHTS Assay for the Inhibitors of Schistosoma Mansoni Peroxiredoxins). Settings: purified TGR, DTNB reduction, TNB absorbance 405 nm; activity change, negative = inhibition: at 114 µM (top of the series) unless noted.
How it was run: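 TGR 20 nM + NADPH 100 uM (dispensed conc.), cpd preinc 15 min RT; start with NADPH (500 uM addition) then DTNB (15 mM addition). Kinetic TNB absorbance, 405 nm filter. Four-parameter Hill fit across titration.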
% is set by controls: 0 for no effect and ±100 for the full control effect; potency is the fitted concentration of half-maximal effect; tags give direction and shape of the fitted curve.
Note: nearly all actives have a fitted effect of over 60% in size.

Structure (SMILES)	activity change, negative = inhibition	Potency
O=C(CCc1ccc(S(=O)(=O)N2CCOCC2)cc1)Nc1cc(Cl)ccc1N1CCOCC1	inactive: 0%	–
Cc1cc(/C=N/Nc2ccc([N+](=O)[O-])cn2)c(C)n1-c1ccc(C(=O)O)cc1	–	active: 35.5 µM
Cc1ccc(S(=O)(=O)Cc2nc(-c3ccc(C(=O)NCc4ccccc4F)cc3)oc2C)cc1	–	active: 7.94 µM
CC(C)N(CC(N)=O)c1ccc(S(=O)(=O)N2CCCC2)cn1	–	inconclusive [inhibitor, partial curve]
Cc1ccc(Cn2c(C)c(CNC(C)c3ccccc3)c(C(=O)O)c2C)cc1 (configuration not stated)	inactive: -10.6%	–
O=C(NCC(=O)N1CCN(c2ccccn2)CC1)c1ccc(Br)o1	inactive: -5.44%	–
Cc1ccc2nc(NC(=O)C3CCN(S(=O)(=O)c4cccnc4)CC3)sc2c1	inactive: 5.2%	–
N#Cc1ccc(N2Cc3ccccc3C2=NC(=O)c2cccnc2Cl)cc1	–	inconclusive [inhibitor, single point]
C#CCOC(=O)CCC(=O)NCCc1ccccc1	–	inconclusive [inhibitor, partial curve]
CCCn1c(=O)n(C)c(=O)c2c(SCC(=O)NCc3ccco3)nc(C3CC3)nc21	–	inconclusive [inhibitor, partial curve]
COc1ccccc1N(Cc1ccccc1)S(=O)(=O)c1cccc(C(=O)Nc2cccc(C)n2)c1	inactive: -7.19%	–
CS(=O)(=O)N(CC(=O)N1CCCC1)c1ccc(Cl)cc1	–	inconclusive [inhibitor, full curve]
O=C(NCCCNC(=O)c1cc(Cl)ccc1Cl)c1ccco1	–	inconclusive [inhibitor, single point]
S=C(Nc1ccc(Cl)cc1)Nc1ccc2c(c1)OCCO2	–	inconclusive [inhibitor, single point]
CCOC(=O)c1ccc(NC(=O)CSCc2ccco2)cc1	–	inconclusive [inhibitor, full curve]
O=C1CCCN1CCCn1cnc2c([nH]c3ccc(F)cc32)c1=O	–	inconclusive [inhibitor, single point]
C#CCOCCOCCOCCNc1nc(N2CCN(C(=O)CCCCCCCCCCNC(=O)[C@H](CCCCN)n3cc(CCCC(=O)O)nn3)CC2)nc(N2CCN(C(=O)CCCCCCCCCCNC(=O)[C@H](CCCCN)n3cc(CCCC(=O)O)nn3)CC2)n1	–	inconclusive [inhibitor, partial curve]
COc1ccc(NC(=S)Nc2nc(CC(=O)Nc3ccccc3OC)cs2)cc1	inconclusive: -46.5% [inhibitor]	–
CN(C)S(=O)(=O)c1ccc(C(=O)N(c2ccccn2)c2ccccn2)cc1	–	inconclusive [inhibitor, single point]
CC(Nc1cc(N2CCN(S(C)(=O)=O)CC2)ccc1[N+](=O)[O-])c1ccccc1 (configuration not stated)	inactive: -11.7%	–
CCc1cccc(C)c1Nc1c(-c2cccc(O)c2)nc2nc(C)cc(C)n12	inactive: -4.99%	–
COc1cc2c(N3CCOCC3)cc(O)c(CC(=O)Nc3ccccc3)c2cc1OC	–	inconclusive [inhibitor, full curve, poor fit]
Cc1cc(C(=O)NNc2ccc(C(C)C)cc2)n(C(C)(C)C)n1	–	inconclusive [inhibitor, partial curve]
CSc1ccc(/C=N/n2c(C)cc(C)cc2=O)cc1	–	inconclusive [inhibitor, full curve, poor fit]

Structure (SMILES)	activity change, negative = inhibition	Potency
Cc1ccc2cc(CN(Cc3ccc4c(c3)OCO4)Cc3nnnn3Cc3ccco3)c(=O)[nH]c2c1C	–	inconclusive [inhibitor, partial curve]
COc1ccc(NC(=O)CSc2nccn2Cc2ccco2)c(OC)c1	–	inactive
CN1CCc2nc3sc(C(=O)NC4CC4)c(N)c3cc2C1	–	inconclusive [inhibitor, full curve]
O=C(CCl)N(c1ccccc1)C1CCCCC1	–	active: 3.16 µM
CCOC(=O)C1CCN(C(=O)Nc2ccc(OC(F)(F)F)cc2)CC1	inactive: 1.25%	–
CC(=O)c1cccc(NC(=O)CCC2CCCC2)c1	inactive: 4.06%	–
CCC(=O)c1cc(F)ccc1OCC(=O)N1CCN(c2ccc(F)cc2)CC1	inactive: -3.29%	–
CN(CCO)c1cc(N2CCN(C(=O)c3ccco3)CC2)c2nonc2c1[N+](=O)[O-]	–	inconclusive [inhibitor, partial curve]
CCCc1ccc(/C=C2\C(=O)c3ccccc3C(O)=C2C(=O)OCC)cc1	–	active: 8.91 µM
CCSc1nnc(NC(=O)C2Cc3ccccc3CN2C(=O)c2ccco2)s1 (configuration not stated)	–	active: 31.6 µM
S=C(Nc1ccc(Cc2ccncc2)cc1)Nc1cccc(Cl)c1	–	inconclusive [inhibitor, partial curve]
Oc1ccc(C2C[C@H]3CC[C@@H]2C3)cc1O (some centres not stated)	–	active: 1 µM
COC(=O)c1ccc(N(C(=O)c2ccco2)C(C(=O)NC2CCCC2)c2ccco2)cc1 (configuration not stated)	–	inconclusive [inhibitor, partial curve]
COc1ccc(NC(=O)Cn2c(=O)n(Cc3ccc(C(=O)NCc4ccccc4Cl)cc3)c(=O)c3ccccc32)cc1	inactive: 1.76%	–
O=C(N/N=C/C=C\c1cccc([N+](=O)[O-])c1)c1cccnc1	–	inconclusive [inhibitor, partial curve]
O=C(O)c1ccccc1Nc1cc(Cl)c2nonc2c1[N+](=O)[O-]	–	active: 0.447 µM
Cc1ccc(C(=O)NCc2ccco2)cc1S(=O)(=O)Nc1cccc(Cl)c1	–	inconclusive [inhibitor, partial curve]
COc1ccc(CN2CCNC(=O)C2CC(=O)NC2CC(C)(C)CC(C)(C)C2)cc1OC (configuration not stated)	–	inconclusive [inhibitor, partial curve]
Cc1c(N2C(=O)/C(=C/C3CC=CCC3)SC2=S)c(=O)n(-c2ccccc2)n1C (configuration not stated)	–	active: 7.94 µM
CC1(C(=O)N2CCN(c3ccccc3)CC2)CC1(Cl)Cl (configuration not stated)	inactive: -6.45%	–
O=C(NC1(Cc2ccccc2)CCN(CCc2cccs2)C1=O)c1ccccc1 (configuration not stated)	–	inconclusive [inhibitor, partial curve]
O=C(Nc1ccc(N2CCCCC2)cc1)C1CCCN1S(=O)(=O)c1ccc(F)cc1 (configuration not stated)	inactive: -13.1%	–
O=C(CSc1ncccc1-c1nc2ccccc2[nH]1)NCc1ccco1	–	active: 12.6 µM
CN1C(=O)CSc2ccc(NC(=O)N3CCC(N4CCCCC4)CC3)cc21	inactive: 0%	–

Structure (SMILES)	activity change, negative = inhibition	Potency
CC(C)[C@H](NC(=O)c1ccco1)C(=O)OCC(=O)N1CC(=O)Nc2ccccc21	–	inconclusive [inhibitor, partial curve]
Cc1cc(C(=O)NCc2ccccc2)c(=O)[nH]c1C	–	inconclusive [inhibitor, partial curve]
O=C1/C(=C\Nc2ccc(OC(F)(F)F)cc2)CCN1c1ncccn1	–	inconclusive [inhibitor, partial curve, poor fit]
CN(C)C(Cc1ccc(C#N)cc1)C(=O)c1ccccc1 (configuration not stated)	inactive: -3.01%	–
O=C(NC1CCCC1)C(c1ccncc1)N(Cc1ccco1)C(=O)c1ccc(-c2ccccc2)[nH]1 (configuration not stated)	–	active: 28.2 µM
CC(=O)c1cccc(OC(=O)c2cc(S(=O)(=O)N3CCOCC3)ccc2N2CCCC2)c1	inactive: -0.658%	–
CC(=O)NS(=O)(=O)c1ccc(NC(=S)Nc2ccccc2)cc1	–	inconclusive [inhibitor, partial curve]
CCOc1ccc(N2C(=O)c3cccnc3C2Nc2ccc(C)cc2)cc1 (configuration not stated)	–	inconclusive [inhibitor, partial curve, poor fit]
CC(=O)C1=C(c2ccccc2)OC(N)=C(C#N)C1c1ccccc1F (configuration not stated)	–	inconclusive [inhibitor, partial curve, poor fit]
c1ccc(-n2cnc3cc(NCc4cccs4)ccc32)cc1	inactive: -9.29%	–
Oc1cccc(C2c3[nH]c4ccccc4c3CCN2Cc2ccoc2)c1 (configuration not stated)	–	active: 17.8 µM
Cc1cccc(NC(=O)/C(C#N)=C/c2ccccc2O)n1	–	active: 89.1 µM
CNC(=S)Nc1cccc([N+](=O)[O-])c1	–	inconclusive [inhibitor, partial curve]
CCOC(=O)CSc1cc(C)c(C#N)c2nc3ccccc3n12	–	active: 2.51 µM
Cc1cccc(NC(c2cccc(F)c2)c2ccc3ccc(C)nc3c2O)n1 (configuration not stated)	–	inconclusive [inhibitor, full curve]
COc1ccc(CCn2c(NN=C3CCCCC3)nc3c2c(=O)[nH]c(=O)n3C)cc1	–	inconclusive [inhibitor, full curve]
O=C(Nc1ccc(Cl)cc1C(=O)c1ccccc1)c1ccccc1Br	inactive: 19.6%	–
N=c1n(CCN2CCCCC2)c2ccccc2n1CC(O)c1ccc(Cl)c(Cl)c1 (configuration not stated)	inactive: -13.1%	–
CC1c2cc3c(cc2CCN1CC(=O)Nc1ccccc1)OCCCO3 (configuration not stated)	–	inconclusive [inhibitor, partial curve, poor fit]
COc1ccccc1NC(=O)c1nc(S(=O)(=O)Cc2ccccc2)ncc1Cl	–	active: 10 µM
CCN(CC)S(=O)(=O)c1ccc(NN=C(C#N)C#N)cc1	–	active: 7.94 µM
COc1ccc(C(C)NC(=O)c2ccccc2Cl)cc1OC (configuration not stated)	–	inconclusive [inhibitor, single point]
CCSc1ccc([C@@H]2[C@@H]3C(=O)N(CC)C(=O)[C@@H]3[C@]3(C(=O)OC)CCCCN23)cc1OC	–	inconclusive [inhibitor, partial curve]
CN1CCN(S(=O)(=O)c2ccc(NC(=S)NC(=O)c3ccccc3)cc2)CC1	–	inconclusive [inhibitor, single point]
